Laboratory results as given in the RNAGym collection of RNA variant scans (doi:10.7554/elife.90254).
The source gives no read counts; variants with many changes may rest on few reads.

B1: OR4K15 (parent)
chain: GUUAACGGUCAUAGGCCAUGGAAACUAGGAGCACCAUUUCGCUGCCAGUGAAGAAAUGAACAAAGAAAAUCUGGGCCAGGCAGGCAUCAAAAGAAAUAGUCUUGCGCUCAACCAGAAAGUCUGUAAUCAUUUUAAGGGUA

Variants of: B1
Assay: self-cleavage, relative activity (ratio to wild type); higher = more cleavage; in vitro, sequencing; the parent is a self-cleaving ribozyme
Variant A36U A51U A62G A98U has a self-cleavage of 1.28.
A56G A116U U131C showed a self-cleavage of 0.28.
Variant U12A A30U A33G A47U A63G U97C U132A has a self-cleavage of 0.71.
A24U U38C A91G U139C gave a self-cleavage of 1.3.
U19C A64G G75A G80U A86U G99U showed a self-cleavage of 0.02.
Variant A23G A51G U72C G75A A94G A111G U120C has a self-cleavage of 0.01.
Variant A94G U97C G137C has a self-cleavage of 0.74.
With A13C U19C A33U A60G A90U the self-cleavage was 1.37.
For G20U U43A A56G C128A, the self-cleavage was 1.11.
Work on A23G G31C A52G U108C yielded a self-cleavage of 0.05.
With U19C A55G A135G the self-cleavage was 1.9.
Work on U12C A13U C17U A67G A89G yielded a self-cleavage of 1.22.
With A82G A94G A96G U102A U130C the self-cleavage was 0.05.
With A27G A62G A95G U102A the self-cleavage was 1.28.
With A56G A94G A111G U120A the self-cleavage was 0.02.
Variant A18G A23G U37A has a self-cleavage of 1.04.
In the case of U12A U39A A60G C85U, the self-cleavage is reported as 0.96.
With U9C G21A U57C A126U the self-cleavage was 0.47.
Variant U3C U38C A90G U130C has a self-cleavage of 0.23.
For A5G A18G A51U A96U, the self-cleavage was 0.29.
In the case of U39A A94G U122C, the self-cleavage is reported as 0.78.
For A69U A92G A110U, the self-cleavage was 1.87.
A33G U37C A68G showed a self-cleavage of 0.81.
Work on A13G U49A G80A U131C yielded a self-cleavage of 0.26.
For U2C A22G A52U A62G A78U A92G, the self-cleavage was 0.44.
For A56C A92U A94G, the self-cleavage was 0.88.
For U2A A56U A116C, the self-cleavage was 0.09.
With U9C U49C A118G the self-cleavage was 1.99.
A11G A63G G83A gave a self-cleavage of 0.88.
With C10U A23G A56G the self-cleavage was 1.12.
For A23G A33C U87C, the self-cleavage was 1.16.
U9A A52G U108C gave a self-cleavage of 0.02.
For A22G A27G A96G G106A, the self-cleavage was 0.03.
In the case of A56G A95G A140G, the self-cleavage is reported as 2.02.
For U9C A64C A91G U122C, the self-cleavage was 0.99.
A11U U43C U100A U131C showed a self-cleavage of 0.24.
U49C A94G A111G showed a self-cleavage of 0.01.
U9C A11U G14C gave a self-cleavage of 1.15.
A63G U122A U133C showed a self-cleavage of 1.35.
In the case of A11G A55U U97C, the self-cleavage is reported as 1.16.
For A22G A36G A69G G106A U122C, the self-cleavage was 0.01.
For A11C U19C A30G A64G U127C, the self-cleavage was 1.7.
In the case of U49A U102C U122C A135G, the self-cleavage is reported as 1.49.
For A5U U12G A52G A95U A111G, the self-cleavage was 0.13.
For A22G A54G U72C U139A, the self-cleavage was 0.28.
U39C U49A A59G A91G U108C A129U showed a self-cleavage of 0.01.
U12C G28C A60U gave a self-cleavage of 2.69.
For U39C A52G U131C, the self-cleavage was 1.58.
Work on A36U U70G A110C yielded a self-cleavage of 0.15.
For A11G A94C U97G U108A, the self-cleavage was 0.04.
With A5G G50A U57C the self-cleavage was 0.49.
With A36U A90G A98G U127C the self-cleavage was 0.35.
In the case of A11C A52G A110G, the self-cleavage is reported as 0.18.
With C61G U97C U102C the self-cleavage was 2.24.
A89U U108C A114C gave a self-cleavage of 0.
For U2C U102C U120C, the self-cleavage was 1.81.
With U12C U87C U108A the self-cleavage was 0.
In the case of A78U A94G U108C U131C, the self-cleavage is reported as 0.01.
In the case of U43C A52G A54G A60G U102A, the self-cleavage is reported as 0.43.
For A64G A89G A96G, the self-cleavage was 1.44.
A22G U39C A110G showed a self-cleavage of 0.13.
With G7A G31A A69G U127A the self-cleavage was 1.72.
Variant G7U U39C U108A has a self-cleavage of 0.08.
In the case of U9A A52G U122A U132A, the self-cleavage is reported as 0.46.
With C42U A54G A67G A68G A82G A111G U122C the self-cleavage was 0.03.
A27G A62U A64C U132C gave a self-cleavage of 1.26.
For U3C A22U A30G A33G, the self-cleavage was 1.44.
A22G C34U A36C C121A U132C showed a self-cleavage of 1.99.
U19C A86G A95G gave a self-cleavage of 1.66.
Variant A11G A86G A89U has a self-cleavage of 1.63.
With U57A U103C U131C the self-cleavage was 0.17.
For A78G A94U U97A, the self-cleavage was 0.11.
Variant G29A U57C A111U has a self-cleavage of 0.04.
A30G U108A A114G showed a self-cleavage of 0.02.
In the case of A18U U19C A23G A33G A90G A95G, the self-cleavage is reported as 1.5.
Variant C17G A67U A116G U132C has a self-cleavage of 0.42.
Variant A51G A63G A82G has a self-cleavage of 0.91.
Work on C40U A66G U87G yielded a self-cleavage of 0.32.
A47G A51G A94G A110G gave a self-cleavage of 0.17.
Work on A33G A52G A90G yielded a self-cleavage of 0.24.
With U19C U26C A27G A78G A89G the self-cleavage was 0.28.
For A23G A27G A111U, the self-cleavage was 0.19.
In the case of A51G A62U A117G, the self-cleavage is reported as 2.14.
For G29A A54G U130C, the self-cleavage was 1.06.
Work on U38C A62G G93U yielded a self-cleavage of 1.53.
A30G U39C A78U gave a self-cleavage of 0.37.
For A24U C35A A59G, the self-cleavage was 1.03.
A90U U102A U122C A129G gave a self-cleavage of 0.55.
Variant U2A A27U U37C A60G has a self-cleavage of 0.9.
For A69G A78U U102C, the self-cleavage was 1.32.
Variant G21A A92G U108A A125G has a self-cleavage of 0.
A55G A64G U122C U133C showed a self-cleavage of 1.64.
With A111G A117G U132C the self-cleavage was 0.01.
Variant U3C A64G A140G has a self-cleavage of 1.1.
U2C G8A A11G gave a self-cleavage of 1.14.
For A86G A110G U131C, the self-cleavage was 0.04.
A23G U39A A55U A82G U122C A129C gave a self-cleavage of 0.04.
A18G A64G A66U showed a self-cleavage of 0.71.
Work on A23U A68G A86G A89G yielded a self-cleavage of 1.49.
In the case of C10A G31A A90G, the self-cleavage is reported as 0.74.
For U49C A63G U103C, the self-cleavage was 1.13.
U9C A24G A78G A135U showed a self-cleavage of 0.63.
With A30G A89G A98G the self-cleavage was 0.84.
With U49C A51G A60C A118G the self-cleavage was 1.55.
U57C A69G U122C G137C showed a self-cleavage of 0.72.
A18U A89G A118G U130C U139C showed a self-cleavage of 0.37.
A54U A60G U70A showed a self-cleavage of 0.87.
With A11G U19A U57C A59C A82G A95G A110G U122C A126G the self-cleavage was 0.01.
In the case of U12C U87C A116G, the self-cleavage is reported as 0.61.
In the case of A5C G7A G14A A23G A59G, the self-cleavage is reported as 1.5.
In the case of A36G A96G A117U A125G, the self-cleavage is reported as 0.67.
Work on A11G A63G A125U yielded a self-cleavage of 1.6.
With G41A A64G A118G the self-cleavage was 0.39.
For U72A U122C A135G, the self-cleavage was 0.13.
In the case of A55G A59U A98G U127C U131C, the self-cleavage is reported as 0.08.
A18G C42U U70C showed a self-cleavage of 0.56.
In the case of U9C U57A A86G A126G, the self-cleavage is reported as 1.24.
A36G U72C A96G showed a self-cleavage of 0.2.
For A33G G41U A86G A91G A95G U108C, the self-cleavage was 0.01.
Work on U39C C76U A90G yielded a self-cleavage of 0.1.
A47G A55G A78G A90G showed a self-cleavage of 0.13.
Work on A59G U131C U133C yielded a self-cleavage of 0.97.
U2C A4G A47G A91G A95G showed a self-cleavage of 0.39.
A23G A62G U139A showed a self-cleavage of 1.35.
U3C A36G U132C showed a self-cleavage of 1.64.
A91G U100C U122C U124C showed a self-cleavage of 2.61.
In the case of U103C A117G U132A U139C, the self-cleavage is reported as 0.88.
In the case of A11G U43C A95G, the self-cleavage is reported as 1.64.
With U9C A33G U39A A59U A94U U97C U102C the self-cleavage was 0.51.
Work on A52G A86U A96G A116C yielded a self-cleavage of 0.21.
In the case of A47U A54G A55G A135U, the self-cleavage is reported as 1.28.
A30G A47G U103C A114U showed a self-cleavage of 0.02.
A27G U49A U100A U103C A116G gave a self-cleavage of 0.05.
In the case of A13G U37C A52G G58U G106A A114U, the self-cleavage is reported as 0.
Work on A23G A47U A60G yielded a self-cleavage of 0.8.
For A51G A89G U122G, the self-cleavage was 2.19.
With A27G A47U A51U A63G U100C the self-cleavage was 1.23.
For G7U U12A A47C C109U U132A, the self-cleavage was 0.37.
Work on A51G U72A A118G yielded a self-cleavage of 0.18.
With U49C A60G A69G U120C the self-cleavage was 0.49.
Variant A5C A62G C76A A95C A114G has a self-cleavage of 0.07.
In the case of A69G U87C U108C A118G, the self-cleavage is reported as 0.
With U9A A11G A78G U108C A111G the self-cleavage was 0.03.
A4G A11U A24G A30G G44A A117G showed a self-cleavage of 1.6.
With A18G U49A U131A the self-cleavage was 0.48.
Variant U37C A51G A116G has a self-cleavage of 0.68.
With G73A U122A A134U the self-cleavage was 0.2.
A68G A89G U127C U139C showed a self-cleavage of 0.81.
Variant A5G A22U C61A A129G has a self-cleavage of 1.15.
For A5G A69C A86U A140U, the self-cleavage was 1.34.
Variant U37C A51G A64G A111U has a self-cleavage of 0.14.
U19C U39C A55U gave a self-cleavage of 1.59.
A11U U108C A114G U122C showed a self-cleavage of 0.01.
Work on G84A A89G A110U yielded a self-cleavage of 1.43.
In the case of A11U A23G A54G, the self-cleavage is reported as 0.99.
Variant A11G A51G C105G U124C has a self-cleavage of 0.03.
For A36G G106A A129G, the self-cleavage was 0.
For A22G C46U U139C, the self-cleavage was 1.37.
In the case of A18G A52G U57A, the self-cleavage is reported as 0.77.
With C16G A23G A51G A110G U122C U127A the self-cleavage was 0.1.
With U43C A54G A55G the self-cleavage was 1.39.
For A89U U108C U127C U130C, the self-cleavage was 0.
With U57C A60G C88U A98G U108C the self-cleavage was 0.02.
Variant C34U A94G A95G A117G has a self-cleavage of 1.85.
Work on U39A A92U U103A A134U yielded a self-cleavage of 0.64.
A22G A24G A94G showed a self-cleavage of 0.57.
For U19C C32U U49A A96G U103C A126G, the self-cleavage was 0.38.
